# Reference: the supplement of paper PMC7826260
# The other results are listed elsewhere or left out. Viral Rep nickase domains cut single-stranded DNA in vitro for 1 h at 37 °C with 3 µM enzyme; only the middle of the 90-letter strands is printed. Values are log2 of uncut reads against the no-enzyme pool; strong cutting gives strongly negative numbers. There is no active / inactive call. The scaling is to total reads; where an enzyme cuts many sequences, the uncut ones exceed 0.
# Experiments:
# Test in all cases: uncleaved DNA left, log2 of reads against the no-enzyme library (log2 ratio); higher = less cleavage (more negative = more Rep cleavage of the k-mer); sequences stand for … in CTCGTCCG…ACCGGAGA
# [1] = system: T1, Rep nickase domain of Muscovy duck circovirus
# T1 sequence (protein, residues 1-111, tag omitted): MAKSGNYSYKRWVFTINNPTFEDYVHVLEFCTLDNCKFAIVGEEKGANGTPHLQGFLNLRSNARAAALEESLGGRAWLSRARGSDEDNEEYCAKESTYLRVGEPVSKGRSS
# Protocol: (§1)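 A pool of 90-nt single-stranded DNAs with seven random bases just before the constant AC of the nick site (name = the seven bases) was cut by 3 µM recombinant His6-SUMO-tagged Rep nickase domain (300 nM DNA, 50 mM HEPES pH 8.0, 50 mM NaCl, 1 mM MnCl2, 1 h, 37 °C, three replicates). Uncut DNA was amplified and sequenced.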
# [2] = system: T2, Rep nickase domain of banana bunchy top virus
# T2 sequence (protein, residues 1-94, tag omitted): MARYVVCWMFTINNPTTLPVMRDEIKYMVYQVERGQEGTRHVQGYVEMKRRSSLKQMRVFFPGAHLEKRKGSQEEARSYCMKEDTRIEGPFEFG
# Protocol: as §1
# [3] = system: T3, Rep nickase domain of cabbage leaf curl virus
# T3 sequence (protein, residues 1-116, tag omitted): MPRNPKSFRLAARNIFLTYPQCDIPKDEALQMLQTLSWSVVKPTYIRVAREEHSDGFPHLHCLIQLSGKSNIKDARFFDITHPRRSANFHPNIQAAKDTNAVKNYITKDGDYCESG
# Protocol: as §1
# [4] = system: T4, Rep nickase domain of chickpea chlorotic dwarf virus
# T4 sequence (protein, residues 1-124, tag omitted): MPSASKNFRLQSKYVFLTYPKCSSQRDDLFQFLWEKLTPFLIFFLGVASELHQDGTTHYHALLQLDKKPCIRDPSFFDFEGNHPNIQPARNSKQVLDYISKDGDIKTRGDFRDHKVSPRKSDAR
# Protocol: as §1
# [5] = system: T5, Rep nickase domain of faba bean necrotic yellows virus
# T5 sequence (protein, residues 1-98, tag omitted): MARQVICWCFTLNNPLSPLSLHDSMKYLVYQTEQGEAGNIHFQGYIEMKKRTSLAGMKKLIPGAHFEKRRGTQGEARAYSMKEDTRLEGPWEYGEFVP
# Protocol: as §1
# [6] = system: T6, Rep nickase domain of maize striate mosaic virus
# T6 sequence (protein, residues 1-117, tag omitted): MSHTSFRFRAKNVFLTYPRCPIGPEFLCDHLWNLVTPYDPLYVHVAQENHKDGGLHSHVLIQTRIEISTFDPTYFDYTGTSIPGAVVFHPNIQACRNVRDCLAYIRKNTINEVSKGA
# Protocol: as §1
# [7] = system: T7, Rep nickase domain of porcine circovirus 2
# T7 sequence (protein, residues 2-116, tag omitted): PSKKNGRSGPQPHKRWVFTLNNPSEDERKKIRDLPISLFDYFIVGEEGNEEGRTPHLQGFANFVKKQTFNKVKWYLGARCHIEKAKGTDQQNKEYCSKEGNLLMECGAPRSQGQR
# Protocol: as §1
# [8] = system: T8, Rep nickase domain of tomato yellow leaf curl virus
# T8 sequence (protein, residues 1-136, tag omitted): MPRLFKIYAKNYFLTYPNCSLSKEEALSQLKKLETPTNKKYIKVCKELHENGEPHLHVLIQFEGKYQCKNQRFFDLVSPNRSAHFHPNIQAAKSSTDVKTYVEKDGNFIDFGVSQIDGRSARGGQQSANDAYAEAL
# Protocol: as §1
# [9] = system: T9, Rep nickase domain of wheat dwarf virus
# T9 sequence (protein, residues 1-137, tag omitted): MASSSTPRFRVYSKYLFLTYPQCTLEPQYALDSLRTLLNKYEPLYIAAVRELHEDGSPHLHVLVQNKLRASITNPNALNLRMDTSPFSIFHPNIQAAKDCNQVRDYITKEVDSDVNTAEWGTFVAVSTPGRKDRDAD
# Protocol: as §1
Sequence,uncleaved DNA left (log2) [1],uncleaved DNA left (log2) [2],uncleaved DNA left (log2) [3],uncleaved DNA left (log2) [4],uncleaved DNA left (log2) [5],uncleaved DNA left (log2) [6],uncleaved DNA left (log2) [7],uncleaved DNA left (log2) [8],uncleaved DNA left (log2) [9]
TCGTGAG,0.0812,-0.0437,-0.47,-0.713,0.024,-1.04,0.0775,0.08,-0.0648
GGAGCCA,0.149,0.0542,0.704,1.52,0.0859,1.91,0.147,0.134,0.179
AGAGTTG,0.0853,0.0682,0.0709,0.527,-0.127,0.984,0.136,-0.0781,0.0831
TAACCGC,-0.0695,-0.129,-0.46,-1.75,-0.0237,-1.22,-0.339,-0.075,-0.177
TCCGGAA,0.11,0.0848,0.352,0.656,-0.0112,1,0.224,0.004,-0.0284
AACCTGA,0.174,0.0528,0.272,0.179,0.145,0.83,0.0817,-0.0356,0.131
TGTATGT,0.0235,0.0283,0.2,0.0802,-0.00947,-0.0259,-0.967,0.092,0.0591
AGGATGA,0.0129,0.0916,0.289,0.894,-0.0914,1,0.0339,-0.184,-0.0303
ATGTCGC,0.104,0.0646,-0.633,-0.439,0.125,-0.913,0.131,0.147,-0.0333
TGGCGAG,-0.0046,-0.2,-0.133,0.316,-0.133,-0.246,0.0131,-0.0536,-0.0627
GATGATG,0.0915,-0.0332,-0.0138,0.268,0.0855,-0.02,0.0711,0.085,0.0493
GGATTGC,0.00987,0.0301,-0.465,0.0252,0.00652,-0.407,0.135,0.0285,-0.0652
TTAGATT,-0.0587,-0.0951,-0.117,-2.2,-0.0825,-0.0715,-0.249,-0.0521,-0.161
GCGAAAT,0.0788,0.0857,0.399,0.875,-0.0343,0.837,-0.00197,0.0113,0.132
CGTCACA,0.102,0.0522,0.0693,-0.752,-0.0929,-0.174,-0.0811,-0.0585,0.0753
CCTCAAA,-0.096,-0.177,-0.0994,-0.298,-0.0414,-0.707,-0.0579,-0.189,-0.0436
ACCGCCT,0.0417,-0.116,-0.439,-1.72,-0.00736,-0.577,-0.0807,-0.117,-0.257
CGAATGT,-0.0728,-0.102,-0.0495,0.514,-0.0336,1.49,-0.0645,-0.219,-0.000162
CTCTTTT,-2.78,-0.3,-0.352,-2.28,0.0819,-0.646,-3.22,0.0575,-0.219
TTGCTTA,0.101,0.00875,-0.324,-1.03,0.191,-0.98,0.0494,0.121,0.113

Sequence,uncleaved DNA left (log2) [1],uncleaved DNA left (log2) [2],uncleaved DNA left (log2) [3],uncleaved DNA left (log2) [4],uncleaved DNA left (log2) [5],uncleaved DNA left (log2) [6],uncleaved DNA left (log2) [7],uncleaved DNA left (log2) [8],uncleaved DNA left (log2) [9]
GTTGTCG,-0.112,-0.09,-0.694,-0.302,-0.121,-0.809,0.0939,-0.043,-0.107
TGGCAGA,0.0529,0.0585,0.521,1.04,-0.0388,0.804,0.149,-0.102,0.0142
CAAGCTC,0.0849,0.0412,-0.0795,0.385,-0.168,0.824,0.102,-0.0807,0.0159
TGAGCTG,0.0265,-0.0331,0.414,1.48,-0.0261,1.77,0.229,-0.112,0.0721
CACGTGC,0.0295,-0.0947,-0.628,-0.556,-0.0238,-1.12,0.0439,0.00746,0.0236
GTACACT,0.00394,0.0215,0.213,0.476,-0.0131,1.75,0.0491,0.0882,0.097
CCAAAAA,0.11,0.129,0.178,-0.00533,0.091,-0.52,0.154,0.012,0.257
CCACCAA,-0.113,0.0498,-0.0947,-0.726,-0.0731,-0.687,-0.276,-0.0411,-0.0572
TGCACTG,-0.116,-0.0774,-0.0564,0.516,-0.107,1.64,0.0347,-0.0981,-0.0294
GCGTATA,0.0953,0.0112,0.0483,-0.217,0.0408,0.234,-0.138,0.111,0.0808
TCCTTGA,0.0624,-0.0898,-0.16,-0.171,-0.0236,-0.821,0.0883,0.0589,-0.041
CGAAGGC,0.0389,-0.0594,0.0794,0.108,-0.0422,-0.428,0.16,0.00416,0.0663
GAGCGGA,0.0663,0.0994,0.0792,0.439,-0.0312,0.469,-0.403,0.0271,0.0122
AAACTTT,0.00351,-0.0264,-2.28,-2.96,0.0149,-1.2,-1.55,0.0507,-1.23
CTTTTCG,-0.0733,-0.0605,-0.699,0.397,-0.0362,-1.24,0.0188,-0.0327,-0.121
ACAAAGT,0.0955,0.0291,-0.0722,-0.458,0.137,-1.06,0.208,0.0577,0.00975
TTAATGC,0.0431,-0.0238,-0.312,-0.742,0.071,-1.2,0.143,0.0149,-0.07
CGGCCCA,-0.128,-0.0499,-0.0738,-0.153,-0.151,0.22,-0.188,-0.0452,-0.0257
GATGCCT,0.123,0.0176,0.0564,-0.817,-0.0241,0.247,-0.0694,-0.0221,0.102
TGCGTTA,0.158,0.0361,-0.287,-0.449,0.262,-0.823,-0.0977,0.159,0.0855

Sequence,uncleaved DNA left (log2) [1],uncleaved DNA left (log2) [2],uncleaved DNA left (log2) [3],uncleaved DNA left (log2) [4],uncleaved DNA left (log2) [5],uncleaved DNA left (log2) [6],uncleaved DNA left (log2) [7],uncleaved DNA left (log2) [8],uncleaved DNA left (log2) [9]
AGTTAGT,-2.61,-0.887,-0.574,-0.857,-0.139,-1.02,-4.03,0.0336,-0.195
GCGTAAT,-0.532,-0.0864,0.0748,0.198,-0.281,0.541,-2.69,0.147,0.0253
CGCACCG,0.0237,0.0394,-0.777,-0.51,-0.000697,-0.918,0.101,-0.093,-0.186
GGTGGTC,0.029,0.0261,0.569,1.22,-0.0737,1.91,0.1,-0.0329,0.0501
CTTTATA,-0.0858,0.0935,-0.196,-1.86,0.16,-0.721,-0.4,-0.0282,0.0203
GGAGAGG,0.144,0.0415,0.608,1.37,0.0691,1.66,0.339,0.0767,0.0886
CATGGGA,0.00357,-0.199,-0.213,-0.117,-0.186,-0.806,0.0518,-0.0872,-0.218
TAAATTT,-1.19,-0.911,-4.8,-3.66,-0.108,-3.39,-4.04,-0.175,-4.02
ACCTCGT,0.0146,-0.00843,-0.521,-0.758,0.0251,-0.988,-0.0141,-0.141,-0.165
CTAGAGG,0.0751,0.087,0.366,1.21,0.0319,1.03,0.152,-0.0207,0.00856
TCAGCCT,-0.0145,-0.00362,-0.18,-2.16,-0.00885,-0.477,-0.108,-0.0426,-0.101
AACTAAC,0.0467,-0.0689,-0.504,-2.03,-0.00863,-0.881,-0.478,-0.0238,0.026
GGAGCCG,0.0709,0.14,-0.345,-0.0967,0.0781,-0.281,0.232,0.0741,0.0199
AATTTTG,-0.0928,0.0431,-0.559,-0.508,0.0694,-1.17,0.0388,0.0606,-0.0356
CGTATGT,-0.0924,-0.0863,-0.075,-0.0456,0.00934,-0.136,-0.507,-0.104,-0.0111
TCATTAA,0.0541,-0.0199,-0.0643,-0.298,-0.0862,-0.742,-0.0101,0.0525,-0.0791
CGACTAG,0.0486,0.139,-0.119,0.736,0.0519,1.43,0.116,0.0802,0.0627
TGTTGTT,-2.89,-0.932,-0.397,-1.92,-0.132,-0.42,-3.22,0.0275,-0.704
GACCTTT,-0.023,-0.0978,0.105,-1.13,-0.134,0.81,-1.17,-0.0166,-0.0525
TACTCAG,0.0512,0.0198,-0.823,-0.899,-0.0234,-1.25,-0.097,-0.0358,-0.099
